Results taken from PubChem BioAssay AID624417 (National Center for Advancing Translational Sciences (NCATS), 2012).
In all, about 410,000 compounds went through this assay and about 6,400 (1.6%) were called active. The inconclusive results got no clear call from the source; some entries with a clear call stand among them for comparison. Calls come from the whole dose curve; as a rule, active = well fitted inhibition curve with a large enough effect; inconclusive = small, poorly fitted or top-dose-only effect; inactive = no such curve, though single readings can be large or run the other way. Potencies of inconclusive entries are doubtful fits and often do not repeat.

Molecular target: Glucagon-like peptide 1 receptor (Homo sapiens) (UniProt P43220)
Sequence of UniProt P43220 (P43220 whole entry, looked up): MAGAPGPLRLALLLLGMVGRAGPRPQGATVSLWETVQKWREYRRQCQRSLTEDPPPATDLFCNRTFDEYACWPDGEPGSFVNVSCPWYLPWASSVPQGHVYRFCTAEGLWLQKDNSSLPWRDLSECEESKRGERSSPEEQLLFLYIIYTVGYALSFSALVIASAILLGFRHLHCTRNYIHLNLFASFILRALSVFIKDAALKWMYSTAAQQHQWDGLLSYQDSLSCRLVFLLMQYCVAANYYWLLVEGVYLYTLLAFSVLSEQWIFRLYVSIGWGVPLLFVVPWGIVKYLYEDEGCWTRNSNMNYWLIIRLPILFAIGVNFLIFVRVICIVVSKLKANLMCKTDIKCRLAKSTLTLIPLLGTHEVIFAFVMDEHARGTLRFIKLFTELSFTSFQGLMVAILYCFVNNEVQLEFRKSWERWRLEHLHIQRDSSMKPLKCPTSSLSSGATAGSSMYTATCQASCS
Assay: qHTS of GLP-1 Receptor Inverse Agonists (Inhibition Mode); note: nearly all actives have a fitted effect of over 55% in size
Conditions: HEK293 GLP-1R CRE-luciferase, luminescence, 24 h, GLP-1R form is constitutively active; activity change, negative = inhibition: at 38.3 µM (top of the series) unless noted
Procedure, shortened: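 Assay principle: reduced luminescence from a cAMP-responsive reporter in HEK293 cells co-expressing a constitutively active GLP-1R. Conditions: 24 hr compound incubation, 37 deg C, 5% CO2.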
% is set by controls: 0 for no effect and ±100 for the full control effect; potency is the fitted concentration of half-maximal effect; tags give direction and shape of the fitted curve.

Potency, inactive:
Cc1ccc(S(=O)(=O)c2cn(C)c3cc(N4CCN(C)CC4)c(F)cc3c2=O)cc1

Potency, inconclusive:
COc1ccc(OCCNC(=S)Nc2cccc3ccccc23)cc1 10 µM [inhibitor, single point], COc1ccc(CNS(=O)(=O)c2ccc3c(c2)NC(=O)C(C)S3)cc1 (centres undefined) 12.6 µM [inhibitor, single point], COc1ccccc1N1CCN(S(=O)(=O)c2c(C)sc3ncn(CC(=O)N(C)c4ccc(C(C)C)cc4)c(=O)c23)CC1 14.1 µM [inhibitor, single point], Cc1ccccc1OCC(=O)N(Cc1ccco1)c1c(N)n(Cc2ccccc2)c(=O)[nH]c1=O 11.2 µM [inhibitor, single point], CC1Cc2ccccc2N1CC(=O)NC(=O)NC1CCCCC1 (centres undefined) 10 µM [inhibitor, partial curve, poor fit], Cc1[nH]n(-c2ccccc2)c(=O)c1C(C[N+](=O)[O-])c1ccc(Cl)cc1 (centres undefined) 25.1 µM [inhibitor, partial curve, poor fit], CC1CC(C)CN(c2ccc(S(=O)(=O)N3CCOCC3)cc2)C1 (centres undefined) 28.2 µM [inhibitor, single point], COCc1c(C(=O)NCCOc2ccc(Cl)cc2)oc2ccccc12 10 µM [inhibitor, partial curve, poor fit], CCCCn1c(/C=N/Nc2nc3ccccc3[nH]2)nc2ccccc21 28.2 µM [inhibitor, single point], O=C(Cc1cccs1)N1CCN=C1SCc1ccccc1Cl 28.2 µM [inhibitor, single point], CCn1c(=O)c(C(=O)CN2CCc3ccccc32)c(N)n(Cc2ccccc2)c1=O 28.2 µM [inhibitor, single point], CCN1CCN(c2ncc(C(=O)Nc3c(F)cc(F)cc3Br)c3ccccc23)CC1 10 µM [inhibitor, partial curve, poor fit], CCOCCOC(=O)c1ccc(NC(=O)/C=C/c2ccc(OC)c(OC)c2)cc1 8.91 µM [inhibitor, partial curve], CCOC(=O)[C@@H](C)N(C(=O)OC(C)(C)C)S(=O)(=O)N(Cc1ccccc1)[C@H](C(=O)OC)C(C)C 28.2 µM [inhibitor, single point], CCCCn1c(=O)[nH]c(=O)c2c1nc(-c1ccccc1F)n2Cc1ccccc1 8.91 µM [inhibitor, partial curve, poor fit], CCOc1cccc2sc(N(CCCN(C)C)C(=O)c3ccc(S(=O)(=O)N(C)CC4CCCO4)cc3)nc12 (centres undefined) 11.2 µM [inhibitor, partial curve, poor fit], CC(C)c1ccc(/C=N/n2c(COc3ccccc3)n[nH]c2=S)cc1 10 µM [inhibitor, partial curve], CC1(O)CC(c2ccc(Cl)cc2)=NN1C(=O)c1ccc(Cl)cc1 (centres undefined) 1 µM [inhibitor, full curve, poor fit], CC1CCN(S(=O)(=O)c2ccc(NC(=O)C3CC(=O)N(c4ccccc4)C3)cc2)CC1 (centres undefined) 10 µM [inhibitor, partial curve, poor fit], COc1cc(C(O)c2nc(-c3cccc(C(F)(F)F)c3)cs2)ccc1F (centres undefined) 28.2 µM [inhibitor, single point], CC1CCCCC12NC(=O)N(CC(=O)NCCc1c[nH]c3ccccc13)C2=O (centres undefined) 28.2 µM [inhibitor, single point], CCOCCOC(=O)c1ccc(NC(=O)c2cc3ccccc3o2)cc1 28.2 µM [inhibitor, single point], CC(C)(C)n1nc2c(c1NC(=O)Cc1ccc(F)cc1)CSC2 28.2 µM [inhibitor, single point], COC(=O)C(C)Sc1ncnc2c1nnn2-c1ccc(F)cc1 (centres undefined) 28.2 µM [inhibitor, single point], O=C(C[n+]1ccc2c(c1)nnn2-c1ccccc1)c1ccc(Cl)cc1 28.2 µM [inhibitor, single point], CN(c1ccccc1)S(=O)(=O)c1ccc(C(=O)Nc2ccncc2)cc1 14.1 µM [inhibitor, partial curve, poor fit], O=S(=O)(Nc1ccccc1N1CCCCC1)c1cccs1 14.1 µM [inhibitor, single point], Cc1cc(C)cc(NC(=O)c2nnn(Cc3cc(C)ccc3C)c2N)c1 6.31 µM [inhibitor, full curve, poor fit], CC(C)(C)c1ccc(CSc2ccc(S(=O)(=O)N3CCOCC3)cn2)cc1 11.2 µM [inhibitor, partial curve, poor fit], CC(C)OCCCN(Cc1ccco1)C(=O)c1cc2c(s1)-c1ccccc1OC2 11.2 µM [inhibitor, single point]

Potency, active:
O=C(Nc1ccc(F)cc1)C(Cc1ccccc1)n1cccc1 (centres undefined) 12.6 µM

Activity change, negative = inhibition, inactive:
O=C(CCCCCn1c(=S)[nH]c2ccc(N3CCOCC3)cc2c1=O)NCc1ccc2c(c1)OCO2 -10.8% [at 7.66 µM], Cc1cccc(C)c1-n1ncc(C(=O)Nc2ccc3c(c2)OCCO3)c1C1CCN(C(=O)OC(C)(C)C)CC1 -27.2%, O=C(CSc1ncc2c(n1)-c1ccccc1N(Cc1ccc(F)cc1)S2(=O)=O)c1ccc(Cl)cc1 40.8%, CCOC(=O)N1CCC(N2CCN(S(=O)(=O)c3ccc(C)cc3)CC2)CC1 -9.8%, Cc1ccc(-c2nc3ccccc3n2C)o1 -6.89%, COc1ccccc1-c1noc(-c2ccc(N3CCN(c4ccccc4)CC3)c([N+](=O)[O-])c2)n1 12.9%, CSc1ncnc2c1ncn2CCCNCC(C)c1ccccc1 (centres undefined) -1.2%
